# Reference: PubChem BioAssay AID463173 (ICCB-Longwood Screening Facility, Harvard Medical School, 2010)
# Hit rate of the full screen: of about 52,000 compounds, about 1,700 (3.3%) were called active. No stated cut-off is given here; in the data, active means survival mostly below about 52% (no sharp cut-off); inactive means mostly above about 56%. Some of the results follow.
# Test system: Wild type
# Experiment: growth inhibition of S. aureus wild type versus tarO mutant, primary screen, teichoic acid synthesis inhibitors, RN4220, OD600 (AID 463173)
# Conditions: S. aureus RN4220 wild type/DeltatarO growth, OD600, 18 h, hits give low values, screened at 18.75 µg/mL (by protocol)
row,Compound,survival
1,COc1ccc(-c2noc(C3CC(=O)N(c4ccc(C)c(F)c4)C3)n2)c(OC)c1 (stereo not given),inactive: 94%
2,CC1CCC(NC(=O)c2ccc3c(c2)N(Cc2cccc(F)c2)C(=O)c2ccccc2S3)CC1 (stereo not given),inactive: 129%
3,CCc1nnc(SCc2ccc(F)cc2Cl)c2cc3sccc3n12,inactive: 93%
4,Cc1ccc(C)c(NC(=O)C(C)n2c(=O)cc(C(F)(F)F)c3c(C)nn(C)c32)c1 (stereo not given),inactive: 80%
5,O=C(Cn1c(-c2cccs2)cc2cc(Cl)ccc21)N1CCCCC1,inactive: 68%
6,Cc1ccc(NC(=O)C2CCCN(S(=O)(=O)c3ccc4c(c3)CCCC(=O)N4)C2)cc1N(C)C (stereo not given),inactive: 75%
7,Cc1ccc(C)c(NC(=O)Cn2c(=O)n(CCCS(=O)(=O)C3CCCCC3)c(=O)c3ccccc32)c1,inactive: 119%
8,COc1ccc(Cl)cc1C(=O)NCC(c1ccc(N(C)C)cc1)N1CCCC1 (stereo not given),inactive: 124%
9,Cc1cc2ccccc2nc1SCCN1CCOCC1,inactive: 105%
10,CC(C)(O)C(=O)N=Nc1c(O)[nH]c2ccccc12,inactive: 109%
11,COc1cc(C2SCC(C(=O)O)N2C(C)=O)cc(Br)c1O (stereo not given),inactive: 112%
12,C/C(=N\N)c1ccc(OC(C)C)c(CN2CCOCC2)c1,inactive: 112%
13,Cc1ccc(-c2ccc(CCC(=O)O)n2-c2ccc(C)c(Cl)c2)cc1,inactive: 62%
14,Fc1ccc(-c2nnn3c2nc(NCc2ccccc2)c2ccccc23)cc1,inactive: 87%
15,CCOc1cc(C(=O)Nc2ccc(-c3nnc4n3CCCCC4)cc2)cc(OCC)c1OCC,inactive: 88%
16,N#Cc1cc2c(ccc3ccccc32)oc1=O,inactive: 106%
17,Cc1ccc2nc(/C(C#N)=C/c3ccc(-c4ccc(C(=O)OC(C)C)cc4)o3)[nH]c2c1,inactive: 65%
18,Cc1ccc2c(c1)c1c(c(=O)n(-c3ccccc3)c(=O)n1CC(=O)c1ccc(Cl)cc1)n2C,inactive: 126%
19,Cn1c(=O)n(C)c2cc(N3CCOCC3)c(NS(=O)(=O)c3ccc(F)cc3)cc21,inactive: 144%
20,O=C1CN(C(=O)c2c(F)cccc2Cl)C(c2ccc(F)cc2)c2cc(Br)ccc2N1 (stereo not given),inactive: 69%
21,CCOc1ccc(NC(=O)CSc2nccn2C2CCCC2)cc1,inactive: 68%
22,CN(C(=O)CSc1nc2ccc(NC(=O)c3cccs3)cc2s1)c1ccccc1,inactive: 77%
23,COC(=O)c1cccc(CN2C(=O)SC(Nc3ccccc3C)C2=O)c1 (stereo not given),inactive: 115%

row,Compound,survival
1,Cc1ccc(CN2C(=O)CN(C3CCCCCC3)C(=O)C2c2ccc(F)cc2)cc1 (stereo not given),active: 1%
2,O=C(c1ccc(-c2cccc(C(F)(F)F)c2)o1)N1CCOCC1,inactive: 107%
3,CCc1ccc(CNC(=O)C2CCN(C(=O)c3ccc(-n4c(C)cc5ccccc54)s3)CC2)cc1,inactive: 81%
4,COc1ccc(-n2c(=O)c3c4c(sc3n(CC(=O)C(C)(C)C)c2=O)CCCC4)c(OC)c1,inactive: 65%
5,Cc1ccc(OCc2cc(=O)n3c(-c4ccccc4)csc3n2)cc1,inactive: 94%
6,COc1ccc(C(=O)Nc2nc(-c3nnn(-c4cc(OC)ccc4OC)c3C)ns2)cc1,inactive: 120%
7,CCc1ccc(CNC(=O)c2cc3cc4ccc(OC)cc4nc3o2)cc1,inactive: 92%
8,Cc1cccc(N2C(=O)CN(C(C)C)C(=O)C2c2ccc(F)cc2)c1C (stereo not given),inactive: 105%
9,O=C(Cn1nnc(-c2cccc(C(F)(F)F)c2)n1)NCc1ccc(F)cc1,inactive: 93%
10,Cc1ccc(NC(=O)C(=O)NCC(c2ccc3c(c2)OCO3)N2CCN(C)CC2)cc1C (stereo not given),inactive: 54%
11,Cc1c(C(=O)Oc2ccc(Br)cc2)sc2ncn(Cc3ccccc3F)c(=O)c12,inactive: 55%
12,COc1ccc(-c2cc(C(=O)NCc3ccc(C)cc3)c3cc(C(C)C)ccc3n2)cc1,inactive: 81%
13,COc1cc(N)ncn1,inactive: 101%
14,CCN(CC)S(=O)(=O)c1ccc2c(c1)c(=O)c(C(=O)N1CCN(c3ccccc3OC)CC1)cn2C,inactive: 78%
15,COc1cc(NC(=O)Nc2c[nH]c(=O)[nH]c2=O)cc(OC)c1OC,inactive: 69%
16,CC(C)CCNC(=O)Cn1cc(S(=O)(=O)Cc2ccc(F)cc2)c2ccccc21,inactive: 91%
17,COc1cccc2cc(-c3nc4ccc(C)cc4[nH]3)c(=O)oc12,inactive: 73%
18,O=C(NCCCN1CCN(c2ccccc2F)CC1)c1sc2ncccc2c1-n1cccc1,inactive: 81%
19,Cc1cc(OCC#N)nc(N)n1,inactive: 120%
20,O=C1CCSC2(C(=O)N(Cc3ccccc3)c3ccccc32)N1c1ccccc1 (stereo not given),inactive: 126%
21,O=C(C1CCCCC1)N1CCN(C(=O)C2CCCCC2)CC1,inactive: 105%
22,CCCCOc1ccc(S(=O)(=O)n2nc(C)c(S(=O)(=O)N3CCCCCC3)c2C)cc1,inactive: 77%
23,CCCC(=O)OC1=C(C(C)=O)N(Cc2ccccc2)S(=O)(=O)c2ccccc21,inactive: 81%

row,Compound,survival
1,Cc1cc(S(=O)(=O)NCCc2csc(-c3cccc(F)c3)n2)ccc1F,inactive: 80%
2,CC(=O)N1c2ccc(S(=O)(=O)NCC3CCC(C(=O)Nc4cccc(C)c4)CC3)cc2CC1C (stereo not given),inactive: 91%
3,Cn1c(O)c(N=NC(=O)c2ccccc2)c2ccccc21,inactive: 105%
4,O=C(CCS(=O)(=O)c1cc2c(cc1Cl)NC(=O)CO2)NCc1ccccc1,inactive: 117%
5,Cc1nc2ccc(NC(=O)C3CCCCC3)cc2c(=O)n1Cc1ccccc1,inactive: 131%
6,CCc1ccc2nc(N3CCC(C(=O)NCCC(C)C)CC3)sc2c1,inactive: 146%
7,CCCCNC(=O)c1cnc2c(-c3ccc(OCC)c(OCC)c3)c(C)nn2c1-c1ccccc1,inactive: 80%
8,CC1CN(C(=O)CSCc2ccccc2)CC(C)O1 (stereo not given),inactive: 113%
9,CCN(Cc1ccccc1)S(=O)(=O)c1ccc(N2CCCCS2(=O)=O)cc1,inactive: 66%
10,CCc1cccc(C)c1NC(=O)c1cc2ccccc2o1,inactive: 121%
11,Cn1cc(S(=O)(=O)c2ccccc2)c(=O)c2cc(F)c(N3CCCC3)cc21,inactive: 124%
12,O=C(NCc1ccccc1)c1ccc(CSc2nc3cccnc3n2Cc2ccccc2)cc1,inactive: 99%
13,O=C(c1ccccc1)C(Nc1ccccn1)c1ccccc1 (stereo not given),inactive: 117%
14,COc1ccc(CCNC(=O)c2cc3c(=O)n4ccccc4nc3n2C)cc1,inactive: 85%
15,COc1ccc(NC(=O)Cn2cc(S(=O)(=O)c3ccccc3)c(=O)c3cc(C)ccc32)cc1Cl,inactive: 92%
16,CCC(=O)N1CCc2cc(Br)cc(S(=O)(=O)N3CCC(C(=O)Nc4cccc(C)c4)CC3)c21,inactive: 94%
17,CCC(Cn1nnc2ccccc2c1=O)NC(=O)Nc1cc(OC)cc(OC)c1 (stereo not given),inactive: 84%
18,Cc1cc2c(cc3c(SCc4cccc(Cl)c4)nnc(C)n32)o1,inactive: 72%
19,CCc1ccc(NC(=O)CSC2=Nc3ccccc3C3=NC(CC(=O)NCc4cccs4)C(=O)N23)cc1 (stereo not given),inactive: 73%
20,COc1cccc(N2CCN(C(=O)c3ccc4c(Cl)c5c(nc4c3)CCCC5)CC2)c1,inactive: 91%
21,CCCSc1nnc(NC(=O)Cc2coc3cc(C)ccc23)s1,inactive: 102%
22,CC(=O)c1ccc(NC(=O)CSc2nc3c(=O)n(C)c(=O)n(C)c3n2C)cc1,inactive: 56%
23,O=c1[nH]c(C2CCN(S(=O)(=O)Cc3ccccc3)CC2)nc2c1nnn2Cc1cccc(Cl)c1,inactive: 107%

row,Compound,survival
1,O=c1c2cccnc2n(Cc2ccc(Cl)cc2)c(=O)n1Cc1ccc(F)cc1,inactive: 94%
2,CNC(=O)c1cccc(-n2c(C)nc3cccnc32)c1C,inactive: 68%
3,CCCC(=O)N1CCCC(c2nc(-c3ccc(C(C)C)cc3)no2)C1 (stereo not given),inactive: 112%
4,CC(=O)Nc1ccc(S(=O)(=O)N2CCN(c3ccc(C)c(C)c3)CC2)cc1,inactive: 124%
5,CC(C)NC(=O)c1ccc(Cl)cc1Cl,inactive: 102%
6,Cc1cc(N2CCN(C)CC2)nc2ccc(NC(=O)c3ccccc3F)cc12,inactive: 119%
7,Cc1cccc(NC(=O)Nc2ccc(C)c(C)c2)n1,inactive: 80%
8,O=C(CSc1nnc2[nH]c(=O)cc(-c3ccccc3)n12)Nc1ccccc1C(F)(F)F,inactive: 71%
9,CCCN1CC=C2C(C#N)=C(N)C(C#N)(C#N)C(c3cccc(OC)c3)C2C1 (stereo not given),inactive: 102%
10,Cc1cc(OCC(=O)Nc2ccc(C(=O)OC3CCCCC3)cc2)ccc1Cl,inactive: 67%
11,O=C(c1c[nH]c2ccc(S(=O)(=O)Nc3ccccc3F)cc2c1=O)N1CCCCCC1,inactive: 79%
12,CCOc1ccc(NC(=O)C(=O)NCCc2sc(-c3ccc(C)cc3)nc2C)cc1,inactive: 55%
13,CC(C)c1ccc(C(=O)CC2(O)C(=O)N(CCc3ccccc3)c3ccc(Cl)cc32)cc1 (stereo not given),inactive: 33%
14,CNC(=O)C1CCC(Cn2c(=O)c3sccc3n(CC(=O)Nc3cc(C)cc(C)c3)c2=O)CC1 (stereo not given),inactive: 65%
15,COc1cccc(NC(=O)Cn2nc(-c3ccncc3)ccc2=O)c1,inactive: 79%
16,CC1CCCCN1CCCNC(=O)c1sc2ncccc2c1-n1cccc1 (stereo not given),inactive: 19%
17,CCC(C)n1c(=N)c(C(=O)NCc2ccco2)cc2c(=O)n3cc(C)ccc3nc21 (stereo not given),inactive: 79%
18,COc1ccc(OC)c(NC(=O)C2CCN(S(=O)(=O)c3c(C)noc3/C=C/c3ccc(C)cc3)CC2)c1,inactive: 83%
19,C[N+]1=C(/C=C/Nc2ccccc2)SCC1,inactive: 111%
20,CCCN1C(=O)c2[nH]nc(-c3ccc(OC)cc3)c2C1c1ccccn1 (stereo not given),inactive: 81%
21,COC(=O)c1sc(N2C(=O)c3oc4cc(C)c(C)cc4c(=O)c3C2c2ccccc2F)nc1C (stereo not given),inactive: 69%
